The values below come from article PMC4336329 (PLoS ONE, 2015).

Structures are written as SMILES. In all, about 310,000 compounds went through this assay and about 2,200 (0.71%) showed an effect of 50% or more. Effects have a minus sign here. Some of the results follow.

The target of this test is human ether-à-go-go-related gene (hERG) potassium channel (human, UniProt Q12809). In words: primary screen, population patch clamp on CHO cells stably expressing hERG.
human ether-à-go-go-related gene (hERG) potassium channel, sequence (Q12809 whole entry, looked up): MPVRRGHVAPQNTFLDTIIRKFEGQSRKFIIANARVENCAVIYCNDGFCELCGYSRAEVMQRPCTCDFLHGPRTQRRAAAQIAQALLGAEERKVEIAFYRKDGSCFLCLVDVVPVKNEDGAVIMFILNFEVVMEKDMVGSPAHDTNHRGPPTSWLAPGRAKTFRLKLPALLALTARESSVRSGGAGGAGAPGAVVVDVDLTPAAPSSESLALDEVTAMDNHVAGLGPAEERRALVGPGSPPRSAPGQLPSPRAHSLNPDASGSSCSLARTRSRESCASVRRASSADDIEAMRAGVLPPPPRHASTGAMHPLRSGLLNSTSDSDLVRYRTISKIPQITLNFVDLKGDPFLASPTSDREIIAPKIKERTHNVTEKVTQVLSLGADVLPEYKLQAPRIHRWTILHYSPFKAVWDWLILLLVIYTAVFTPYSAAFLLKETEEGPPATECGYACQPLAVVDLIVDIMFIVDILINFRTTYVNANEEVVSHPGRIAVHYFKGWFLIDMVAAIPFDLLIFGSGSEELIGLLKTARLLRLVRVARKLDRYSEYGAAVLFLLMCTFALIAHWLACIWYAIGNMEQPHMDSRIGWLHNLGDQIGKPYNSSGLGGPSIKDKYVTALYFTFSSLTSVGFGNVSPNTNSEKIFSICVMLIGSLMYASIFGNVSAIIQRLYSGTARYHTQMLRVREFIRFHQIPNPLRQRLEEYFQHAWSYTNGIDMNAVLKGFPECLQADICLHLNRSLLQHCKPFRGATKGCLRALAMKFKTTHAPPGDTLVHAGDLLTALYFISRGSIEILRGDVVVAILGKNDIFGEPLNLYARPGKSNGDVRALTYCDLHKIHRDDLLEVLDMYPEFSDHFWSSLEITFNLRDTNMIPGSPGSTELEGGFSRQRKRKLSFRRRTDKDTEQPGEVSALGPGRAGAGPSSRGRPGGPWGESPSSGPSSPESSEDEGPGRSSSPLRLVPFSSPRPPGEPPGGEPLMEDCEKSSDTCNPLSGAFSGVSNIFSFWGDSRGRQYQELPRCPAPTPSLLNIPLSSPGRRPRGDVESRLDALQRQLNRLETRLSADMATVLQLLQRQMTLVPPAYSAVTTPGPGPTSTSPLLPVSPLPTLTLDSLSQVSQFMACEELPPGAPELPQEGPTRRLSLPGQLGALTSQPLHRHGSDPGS
Turning to `CC(=O)C1=C(C)NC(=O)CC1c1ccc(Br)cc1` (stereo not drawn), the “hERG current change (%, negative = inhibition) at 1uM” value came to 16.4%.

As for `Fc1ccc(CNc2nc3ccccc3n3cnnc23)cc1`, the “hERG current change (%, negative = inhibition) at 1uM” value is recorded as 7.15%.

On to `CCc1nnc(NC(=O)c2cc3ccccc3oc2=O)s1`, for which the “hERG current change (%, negative = inhibition) at 1uM” value is given as 14.8%.

With `COc1ccc(OC)c(S(=O)(=O)NCc2csc(-c3ccccc3)n2)c1`, the “hERG current change (%, negative = inhibition) at 1uM” value is recorded as 5.59%.

On to `O=C(CCNS(=O)(=O)c1ccccc1F)N1CCN(S(=O)(=O)c2cccc(F)c2)CC1`, for which the “hERG current change (%, negative = inhibition) at 1uM” value was 10.4%.

As to `CC(OC(=O)C1=COCCO1)C(=O)Nc1cc(S(=O)(=O)N2CCCCC2)ccc1Cl` (stereo not drawn), the “hERG current change (%, negative = inhibition) at 1uM” value is reported as 7.78%.

Consider `O=C(c1ccc(F)cc1F)N1CCCC(c2nc(-c3cccs3)no2)C1` (stereo not drawn), for which the “hERG current change (%, negative = inhibition) at 1uM” value is on record as 12.3%.

For `CCOC(=O)c1ccc(Oc2c(C)oc3cc(OS(C)(=O)=O)ccc3c2=O)cc1`, the “hERG current change (%, negative = inhibition) at 1uM” value is -7.39%.

In the case of `O=C(NCc1ccc(Cl)cc1)c1ccccc1CCc1ccccc1`, the “hERG current change (%, negative = inhibition) at 1uM” value was determined as 1.45%.

Turning to `O=C(COc1ccccc1)Nc1ccccc1C(=O)NC1CC1`, the “hERG current change (%, negative = inhibition) at 1uM” value was 7%.

Consider `Cc1ccc(S(=O)(=O)N2CCN(c3ccc([N+](=O)[O-])c(NCCN4CCOCC4)c3)CC2)cc1`, for which the “hERG current change (%, negative = inhibition) at 1uM” value is 9.41%.

On to `O=c1c2c([nH]c3ccccc13)CCCC2`, for which the “hERG current change (%, negative = inhibition) at 1uM” value is 17.9%.

Consider `Cc1onc(-c2ccccc2Cl)c1C(=O)N(C)CC(=O)Nc1ccc(F)c(F)c1F`, for which the “hERG current change (%, negative = inhibition) at 1uM” value is -4.97%.

With `COc1ccc(NC(=O)CN(c2cc(C)cc(C)c2)S(=O)(=O)c2c(C)noc2C)cc1OC`, the “hERG current change (%, negative = inhibition) at 1uM” value is given as 9.9%.

As to `O=C(Nc1cc(C(F)(F)F)ccc1Cl)c1cc2nc3c(c(C(F)(F)F)n2n1)CCCC3`, the “hERG current change (%, negative = inhibition) at 1uM” value was found to be 12.3%.

Turning to `CCC1(Cc2ccccc2)NC(=O)c2ccccc2O1` (stereo not drawn), the “hERG current change (%, negative = inhibition) at 1uM” value amounted to 12.3%.

On to `COc1ccc(Cc2nnc(NC(=O)c3cc(OC)cc(OC)c3)s2)cc1`, for which the “hERG current change (%, negative = inhibition) at 1uM” value is 13.9%.

`CN1CCN(S(=O)(=O)c2cccc(C(=O)N(c3ccccn3)C3CCCCC3)c2)CC1`: the “hERG current change (%, negative = inhibition) at 1uM” value is on record as -11%.

As for `CC(=O)N1CCN(c2ccc(NCc3ccc(C(C)C)cc3)cc2)CC1`, the “hERG current change (%, negative = inhibition) at 1uM” value was found to be 6.7%.

With `CCOc1ccc(NC(=O)CCC(=O)Nc2cc(OC)c(NC(=O)c3ccco3)cc2OC)cc1`, the “hERG current change (%, negative = inhibition) at 1uM” value is listed as 13.1%.

Consider `O=Cc1ccc(OCCN2CCCC2=O)cc1`, for which the “hERG current change (%, negative = inhibition) at 1uM” value was found to be 14.8%.

With `Cc1ccc(-c2csc(NC(=S)NC(=O)c3ccco3)n2)cc1`, the “hERG current change (%, negative = inhibition) at 1uM” value is reported as 9.45%.

On to `O=C(COC(=O)Cc1ccc(Cl)cc1)NC1CCCC1`, for which the “hERG current change (%, negative = inhibition) at 1uM” value turned out to be 10.9%.

Regarding `CCN1CCN(C(=O)CCc2nnc3ccc(N4CCN(c5cccc(OC)c5)CC4)nn23)CC1`, the “hERG current change (%, negative = inhibition) at 1uM” value was found to be 10.3%.
